SMILES strings stand for the structures. Out of some 150,000 compounds screened, about 540 (0.36%) showed an effect of 50% or more. This is one part of the list.

In this assay the test system is Plasmodium falciparum. The experiment in a line: Primary screen in NF54 nanoGlo assay, in single point, at 2uM, 72h; a lower Z score goes with more inhibition. The format is functional, Erythrocyte. Particulars: timepoint 72 hour.
Consider `Cc1cccc(OCC(O)CNC(C)c2cncc(F)c2)c1` (stereo not given), for which the % Inhibition (in general, the change of the read-out against control, counted positive when it falls) was 4% and the Z score is on record as -0.49.
Consider `O=C(C(=O)N1CCCC1)c1ccc(Br)cc1`, for which the “% Inhibition” value is -15% and the Z score was found to be 2.14.
On the same counts, the results for `C[C@H](Oc1cccc(F)c1C(N)=O)c1nc(C2CC2)no1` are -6% and 0.93.
As for `FCCn1cc(-c2noc([C@H]3C[C@@H]3c3ccc(F)cc3F)n2)cn1`, the “% Inhibition” value stood at 9% and the Z score is -1.66.
Take `O=C(NCc1ccccc1)c1cc(NC[C@H]2CCS(=O)(=O)C2)ccn1`: the “% Inhibition” value is -5% and the Z score came out at 0.94.
With `COc1ccc(N2CCN(C(=O)c3sc4nc(C)nc(N5CCCCC5)c4c3C)CC2)cc1`, the “% Inhibition” value was -3% and the Z score is given as 0.45.
With `CCCC[C@H](CC)CNS(=O)(=O)c1ccc(C)cc1`, the “% Inhibition” value was -2% and the Z score amounted to 0.22.
Taken in the same sequence, the figures for `CC1(C)C[C@H](NCc2cn3ccsc3n2)C(C)(C)O1` were -5% and 0.54.
Regarding `Cc1c(NCc2cn(C(C)C)nn2)cccc1S(=O)(=O)NC1CC1`, the “% Inhibition” value is -6% and the Z score was found to be 1.13.
As for `Cc1cc(O)ccc1NC(=O)NCC(F)(F)F`, the “% Inhibition” value is on record as -13% and the Z score is 1.31.
On to `C[C@H](NC(=O)Nc1cccc(Cl)c1)c1ccc2c(c1)CC(=O)N2`, for which the “% Inhibition” value was -3% and the Z score is 0.44.
Regarding `Cc1ccc(C)c(OCC(=O)OCC(=O)NC(N)=O)c1`, the “% Inhibition” value stood at 27% and the Z score was -3.11.
As for `CN=C(NC)NCc1cc(C)c(F)c(C)c1`, the “% Inhibition” value is listed as -1% and the Z score is on record as 0.08.
Regarding `CCCN(C)S(=O)(=O)CCN1CCCC1`, the “% Inhibition” value is reported as -14% and the Z score came to 1.46.
With `O=C(CN1CCC[C@H](O)C1)NCc1cc(-c2ccccc2Cl)no1`, the “% Inhibition” value is 0% and the Z score is reported as -0.05.
`O=C(c1ccc2c(c1)CCC2)N1C[C@@H]2CC[C@H]1CN(Cc1cscn1)C2`: the “% Inhibition” value is given as -22% and the Z score was 2.34.
As for `CCn1nccc1CN(CCO)C(=O)c1ncoc1C1CC1`, the “% Inhibition” value is -8% and the Z score is on record as 1.35.
Taken in the same sequence, the figures for `CN1CCCN(C[C@H](O)c2ccc(Cl)c(F)c2)CC1=O` were -7% and 1.09.
As to `CCc1ccc(C2CC(C(=O)NCc3ccc4c(c3)OCO4)CN(C(=O)c3ccc(F)cc3)C2)cc1` (stereo not given), the “% Inhibition” value came out at 3% and the Z score is -0.42.
On to `O=S(=O)(c1cccc(-c2ccccc2)c1)N1CC2(CCNCC2)[C@H]2COC[C@H]21`, for which the “% Inhibition” value is given as -13% and the Z score came to 2.17.
In the case of `O=S(=O)(c1ccccc1)[C@H]1CCN(S(=O)(=O)C2CCCCC2)C1`, the “% Inhibition” value was -15% and the Z score is recorded as 2.58.
On the same counts, the results for `C[C@@H](c1cccc(O)c1)N(C)Cc1cncn1C` are -8% and 1.18.
On the same counts, the results for `CCc1c[nH]c2ncnc(NCc3ncccc3NC)c12` are -9% and 1.47.
On to `C[C@H](NCCc1nnc2n1CCC2)c1cccc(OC(F)F)c1`, for which the “% Inhibition” value is given as -11% and the Z score is 0.98.
On the same counts, the results for `O=C(Cc1ccccc1)N(c1ccc2oc(=O)sc2c1)S(=O)(=O)c1cc(Cl)ccc1Cl` are -24% and 3.01.
On to `Cc1cnc(N2CCC(Oc3ccnc(C(N)=O)c3)CC2)s1`, for which the “% Inhibition” value is recorded as 0% and the Z score came out at 0.04.
Taken in the same sequence, the figures for `Cc1cc(C)n([C@@H](CNS(=O)(=O)Cc2ccccc2Cl)c2ccsc2)n1` were -6% and 1.2.
As for `COc1nn(C)cc1C(=O)N[C@@H](C)Cc1ccco1`, the “% Inhibition” value was -3% and the Z score was 0.56.
Regarding `Cc1ccc(Oc2cnn(-c3ccc(F)cc3)c(=O)c2Nc2cccc(C(=O)N(C)Cc3ccccc3)c2)cc1`, the “% Inhibition” value is recorded as -1% and the Z score is given as 0.25.
On to `COc1cc(C)sc1C(=O)N1CCC[C@@H]1CC(=O)O`, for which the “% Inhibition” value is -1% and the Z score amounted to 0.13.
As for `CON(C)C1CCN(C(=O)CCc2cccc(OC(F)F)c2)CC1`, the “% Inhibition” value is reported as -7% and the Z score is on record as 0.75.
Consider `CN(C)[C@H]1CCN(CCC(=O)NCc2cccc(Cl)c2)C1`, for which the “% Inhibition” value is 0% and the Z score worked out at 0.08.
In the case of `CC(C)Oc1cccc(CNC(=O)N2CCC3(CCC(=O)N(C)CC3)CC2)c1`, the “% Inhibition” value is -1% and the Z score turned out to be 0.06.
On to `CC(C)N1CCN(S(=O)(=O)c2ccc3c(c2)CCC(=O)N3)CC1`, for which the “% Inhibition” value was found to be 1% and the Z score is reported as -0.2.
Taken in the same sequence, the figures for `FC(F)Oc1cccc(-c2cc(C(F)(F)F)c3c(-c4ccc5c(c4)OCO5)noc3n2)c1` were 35% and -0.79.
For `CN(C)C(=O)c1ccc2c(c1)N(CC(=O)NCc1ccc3c(c1)OCO3)C(=O)CO2`, the “% Inhibition” value turned out to be 0% and the Z score amounted to 0.03.
In the case of `Cc1nc(C[C@@H]2NC(=O)NC2=O)n(C(C)(C)C)n1`, the “% Inhibition” value was determined as 2% and the Z score is reported as -0.37.
With `Cc1cc([C@@H](O)CNC(=O)c2cncc(Br)c2)c(C)o1`, the “% Inhibition” value is listed as -7% and the Z score was 1.09.
With `CN(Cc1ccc(F)cc1)C(=O)Cn1ncn(C)c1=O`, the “% Inhibition” value is given as -6% and the Z score was found to be 0.65.
Consider `O=S(=O)(Cc1ccccc1)N1CCC(Cc2ccn[nH]2)CC1`, for which the “% Inhibition” value is given as -12% and the Z score is on record as 1.53.
Consider `Cc1nc(-c2cccnc2)c2ccccc2n1`, for which the “% Inhibition” value is -16% and the Z score stood at 2.3.
Take `CCCCN(CC)C(=O)Nc1cnns1`: the “% Inhibition” value is listed as -9% and the Z score was 0.89.
For `Cc1cc(NC(=O)NCCC(=O)Nc2ccccc2)ccn1`, the “% Inhibition” value is reported as -6% and the Z score is 0.96.
Taken in the same sequence, the figures for `NC(=O)c1cc(CCCOCc2ccccc2)ccc1F` were -1% and 0.19.
In the case of `CS(=O)(=O)N1CC[C@@H](C(=O)Nc2ccc3c(c2)OCO3)Oc2ccccc21`, the “% Inhibition” value is -3% and the Z score worked out at 0.54.
Take `COc1ccc(CCNC(=O)CN2CC[C@](O)(C3CC3)[C@@H](C)C2)cc1`: the “% Inhibition” value is listed as -4% and the Z score came out at 0.56.
Taken in the same sequence, the figures for `CCN(C(=O)c1cc(COC(C)(C)C)on1)c1ccccc1Cl` were 7% and -0.82.
As for `CC(C)(O)C1CN(C(=O)N[C@H](c2ccccc2)C(F)F)C1`, the “% Inhibition” value is given as -18% and the Z score is 1.91.
With `C=CCCCN(C)C(=O)c1cc(S(N)(=O)=O)cc(Cl)c1F`, the “% Inhibition” value is given as 37% and the Z score is listed as -5.75.
For the compound `COc1ccc(CCC(=O)Nc2ncc(Cc3ccc(C#N)cc3)s2)cc1`, the “% Inhibition” value turned out to be 30% and the Z score is reported as -3.93.
For the compound `O=C(Nc1ccc(O)cc1F)c1n[nH]c2c1CCC2`, the “% Inhibition” value is listed as 0% and the Z score is -0.02.
On to `COc1ccc(OCCN2CC(=O)N(c3ccc(C(C)C)cc3)[C@@H]3CS(=O)(=O)C[C@@H]32)cc1`, for which the “% Inhibition” value is -19% and the Z score turned out to be 2.42.
`N#Cc1ncn(-c2ccc(Oc3ccccc3)cc2)c1N`: the “% Inhibition” value is reported as -9% and the Z score was 1.24.
Take `CN(C)c1ncccc1CNCC(C)(C)CN1CCOCC1`: the “% Inhibition” value is given as -17% and the Z score is recorded as 2.24.
As for `COCCc1nsc(N2C(C)CCC2C)n1` (stereo not given), the “% Inhibition” value was 5% and the Z score is given as -0.75.
